# Results reported in the supplement of paper PMC12067093, “Discovery and optimisation of a covalent ligand for TRIM25 and its application to targeted protein ubiquitination” (Chemical Science, 2025).
# Of roughly 21,000 targets only a part is listed; those with the largest changes were picked by preference.
# Compound: Cc1cc(ccc1-c1ccccc1)C(=O)N1CCCN(CC1)C(=O)CCl [compound 10]
# Assay: probe-labelled cysteine peptide fold change vs DMSO (competition) (log2 fold change); higher = less target engagement (more negative = stronger competition)
# Conditions: THP-1, incubation time: 4 h
# 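Also: competitive profiling in live THP-1 cells: cysteine peptides tagged with an iodoacetamide desthiobiotin (IA-DTB) probe, intensity after compound treatment relative to DMSO-treated cells.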
# Sequence of UniProt Q9UNH7 (Q9UNH7 whole entry, looked up): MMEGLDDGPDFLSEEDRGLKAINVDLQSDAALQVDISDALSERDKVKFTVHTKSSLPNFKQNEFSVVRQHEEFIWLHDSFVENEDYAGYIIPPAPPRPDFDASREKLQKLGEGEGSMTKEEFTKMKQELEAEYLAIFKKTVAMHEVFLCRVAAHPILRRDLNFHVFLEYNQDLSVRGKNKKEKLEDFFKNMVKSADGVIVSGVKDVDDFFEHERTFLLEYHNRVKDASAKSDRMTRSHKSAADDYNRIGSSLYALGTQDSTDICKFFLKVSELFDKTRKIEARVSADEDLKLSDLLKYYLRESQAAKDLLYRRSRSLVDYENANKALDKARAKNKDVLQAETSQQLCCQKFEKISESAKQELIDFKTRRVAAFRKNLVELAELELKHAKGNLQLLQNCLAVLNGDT
# Sequence of UniProt Q9NXH8 (Q9NXH8 whole entry, looked up): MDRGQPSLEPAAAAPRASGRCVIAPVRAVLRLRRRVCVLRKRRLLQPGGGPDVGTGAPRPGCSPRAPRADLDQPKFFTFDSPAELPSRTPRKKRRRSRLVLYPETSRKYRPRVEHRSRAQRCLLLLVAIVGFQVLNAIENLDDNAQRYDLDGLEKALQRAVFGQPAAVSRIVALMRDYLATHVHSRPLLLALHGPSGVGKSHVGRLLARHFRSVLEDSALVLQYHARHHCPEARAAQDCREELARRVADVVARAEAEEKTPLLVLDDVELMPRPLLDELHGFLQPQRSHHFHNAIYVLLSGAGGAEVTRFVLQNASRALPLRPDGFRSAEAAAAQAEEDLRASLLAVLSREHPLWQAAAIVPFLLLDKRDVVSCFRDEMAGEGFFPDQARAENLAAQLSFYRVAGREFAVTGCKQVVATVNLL
# Sequence of UniProt P26639 (P26639 whole entry, looked up): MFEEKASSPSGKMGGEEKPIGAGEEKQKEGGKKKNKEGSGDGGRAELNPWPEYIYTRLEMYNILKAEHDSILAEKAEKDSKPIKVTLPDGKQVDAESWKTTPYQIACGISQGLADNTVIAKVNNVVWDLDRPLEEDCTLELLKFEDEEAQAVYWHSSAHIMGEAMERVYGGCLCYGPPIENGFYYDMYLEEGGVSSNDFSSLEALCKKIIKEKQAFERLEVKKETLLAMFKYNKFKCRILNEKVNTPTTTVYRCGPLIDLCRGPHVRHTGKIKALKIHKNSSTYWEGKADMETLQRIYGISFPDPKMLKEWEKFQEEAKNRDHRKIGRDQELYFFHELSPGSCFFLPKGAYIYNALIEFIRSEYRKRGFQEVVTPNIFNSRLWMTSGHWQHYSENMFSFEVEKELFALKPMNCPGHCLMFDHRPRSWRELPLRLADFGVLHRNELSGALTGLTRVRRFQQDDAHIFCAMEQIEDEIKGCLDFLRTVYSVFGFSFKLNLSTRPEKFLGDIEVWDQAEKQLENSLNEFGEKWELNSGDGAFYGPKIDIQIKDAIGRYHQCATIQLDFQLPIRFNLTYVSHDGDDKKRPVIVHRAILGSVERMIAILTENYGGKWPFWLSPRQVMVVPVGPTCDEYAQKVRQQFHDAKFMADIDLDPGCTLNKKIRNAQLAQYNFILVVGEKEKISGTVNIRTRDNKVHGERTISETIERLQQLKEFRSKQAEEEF
# Sequence of UniProt Q8N3U4 (Q8N3U4 whole entry, looked up): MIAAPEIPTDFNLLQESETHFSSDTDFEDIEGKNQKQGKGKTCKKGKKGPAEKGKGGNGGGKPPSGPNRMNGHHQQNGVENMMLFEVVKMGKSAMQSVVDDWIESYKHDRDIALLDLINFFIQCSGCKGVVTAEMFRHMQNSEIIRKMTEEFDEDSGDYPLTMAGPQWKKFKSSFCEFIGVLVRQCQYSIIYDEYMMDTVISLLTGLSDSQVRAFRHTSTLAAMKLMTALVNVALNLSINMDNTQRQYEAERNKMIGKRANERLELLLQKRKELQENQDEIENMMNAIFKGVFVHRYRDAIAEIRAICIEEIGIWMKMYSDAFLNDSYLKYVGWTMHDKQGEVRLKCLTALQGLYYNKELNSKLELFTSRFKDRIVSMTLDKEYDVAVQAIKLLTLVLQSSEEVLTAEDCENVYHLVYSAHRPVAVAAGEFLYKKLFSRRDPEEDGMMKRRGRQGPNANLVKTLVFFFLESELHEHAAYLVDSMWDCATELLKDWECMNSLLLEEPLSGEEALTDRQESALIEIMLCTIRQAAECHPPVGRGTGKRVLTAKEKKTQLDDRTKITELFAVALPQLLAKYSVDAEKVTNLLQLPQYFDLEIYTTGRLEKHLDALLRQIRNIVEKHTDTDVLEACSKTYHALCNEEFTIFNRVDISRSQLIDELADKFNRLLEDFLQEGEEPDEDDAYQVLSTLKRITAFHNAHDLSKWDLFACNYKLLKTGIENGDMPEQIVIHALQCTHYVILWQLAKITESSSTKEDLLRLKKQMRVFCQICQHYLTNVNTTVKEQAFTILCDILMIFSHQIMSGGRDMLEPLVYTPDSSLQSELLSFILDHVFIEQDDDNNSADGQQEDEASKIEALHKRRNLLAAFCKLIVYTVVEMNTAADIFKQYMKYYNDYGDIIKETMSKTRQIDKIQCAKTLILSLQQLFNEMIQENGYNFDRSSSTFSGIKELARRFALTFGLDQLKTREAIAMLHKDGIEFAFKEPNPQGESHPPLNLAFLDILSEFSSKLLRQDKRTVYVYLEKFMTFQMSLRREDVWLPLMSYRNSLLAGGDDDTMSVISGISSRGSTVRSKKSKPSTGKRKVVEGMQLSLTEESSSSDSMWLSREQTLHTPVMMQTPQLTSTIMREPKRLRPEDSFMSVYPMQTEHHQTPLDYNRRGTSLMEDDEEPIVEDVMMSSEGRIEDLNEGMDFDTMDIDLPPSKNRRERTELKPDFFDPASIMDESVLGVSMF
# Sequence of UniProt P42680 (P42680 whole entry, looked up): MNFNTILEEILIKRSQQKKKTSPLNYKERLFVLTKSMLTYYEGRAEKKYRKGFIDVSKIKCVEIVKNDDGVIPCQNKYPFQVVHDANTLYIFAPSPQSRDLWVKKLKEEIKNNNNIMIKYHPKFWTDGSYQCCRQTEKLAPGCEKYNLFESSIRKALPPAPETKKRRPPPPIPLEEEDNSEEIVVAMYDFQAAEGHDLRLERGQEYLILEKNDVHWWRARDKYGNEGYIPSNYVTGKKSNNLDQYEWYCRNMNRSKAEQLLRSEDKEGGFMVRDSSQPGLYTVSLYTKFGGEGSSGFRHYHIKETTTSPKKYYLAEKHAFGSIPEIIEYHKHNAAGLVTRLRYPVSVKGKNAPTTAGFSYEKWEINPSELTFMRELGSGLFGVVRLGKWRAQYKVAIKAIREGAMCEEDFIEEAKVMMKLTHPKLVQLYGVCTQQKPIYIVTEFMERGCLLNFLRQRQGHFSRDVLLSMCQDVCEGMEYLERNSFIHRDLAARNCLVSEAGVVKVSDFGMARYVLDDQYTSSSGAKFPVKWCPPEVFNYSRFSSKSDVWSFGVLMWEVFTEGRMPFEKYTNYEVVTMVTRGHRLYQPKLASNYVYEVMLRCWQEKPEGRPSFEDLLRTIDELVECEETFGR
# Sequence of UniProt Q8N5C6 (Q8N5C6 whole entry, looked up): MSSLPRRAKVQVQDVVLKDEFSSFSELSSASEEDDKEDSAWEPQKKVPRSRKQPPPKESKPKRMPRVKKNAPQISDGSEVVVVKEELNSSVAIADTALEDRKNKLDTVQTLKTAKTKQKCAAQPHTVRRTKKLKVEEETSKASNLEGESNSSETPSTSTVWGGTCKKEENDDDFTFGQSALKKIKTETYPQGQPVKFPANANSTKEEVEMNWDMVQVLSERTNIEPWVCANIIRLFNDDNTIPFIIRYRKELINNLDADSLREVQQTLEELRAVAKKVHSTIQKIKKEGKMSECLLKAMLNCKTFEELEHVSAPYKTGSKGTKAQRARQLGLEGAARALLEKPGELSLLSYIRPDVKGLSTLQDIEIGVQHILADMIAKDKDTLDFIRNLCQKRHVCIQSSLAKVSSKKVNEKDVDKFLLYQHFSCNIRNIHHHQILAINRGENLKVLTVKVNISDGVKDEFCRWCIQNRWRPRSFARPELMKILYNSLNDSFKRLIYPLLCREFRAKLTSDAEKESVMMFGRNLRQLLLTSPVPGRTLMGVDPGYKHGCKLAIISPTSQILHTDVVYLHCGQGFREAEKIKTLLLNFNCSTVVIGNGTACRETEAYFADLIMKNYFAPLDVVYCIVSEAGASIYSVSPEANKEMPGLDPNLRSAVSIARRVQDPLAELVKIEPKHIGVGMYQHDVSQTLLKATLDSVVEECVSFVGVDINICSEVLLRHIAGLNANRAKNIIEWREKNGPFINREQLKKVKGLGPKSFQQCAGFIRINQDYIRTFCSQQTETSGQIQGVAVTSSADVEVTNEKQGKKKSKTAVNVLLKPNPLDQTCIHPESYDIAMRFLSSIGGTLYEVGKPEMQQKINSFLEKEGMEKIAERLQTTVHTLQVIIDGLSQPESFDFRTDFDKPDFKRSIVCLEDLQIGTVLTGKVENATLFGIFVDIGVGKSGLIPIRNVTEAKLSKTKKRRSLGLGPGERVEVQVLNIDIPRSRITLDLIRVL
# Sequence of UniProt Q92544 (Q92544 whole entry, looked up): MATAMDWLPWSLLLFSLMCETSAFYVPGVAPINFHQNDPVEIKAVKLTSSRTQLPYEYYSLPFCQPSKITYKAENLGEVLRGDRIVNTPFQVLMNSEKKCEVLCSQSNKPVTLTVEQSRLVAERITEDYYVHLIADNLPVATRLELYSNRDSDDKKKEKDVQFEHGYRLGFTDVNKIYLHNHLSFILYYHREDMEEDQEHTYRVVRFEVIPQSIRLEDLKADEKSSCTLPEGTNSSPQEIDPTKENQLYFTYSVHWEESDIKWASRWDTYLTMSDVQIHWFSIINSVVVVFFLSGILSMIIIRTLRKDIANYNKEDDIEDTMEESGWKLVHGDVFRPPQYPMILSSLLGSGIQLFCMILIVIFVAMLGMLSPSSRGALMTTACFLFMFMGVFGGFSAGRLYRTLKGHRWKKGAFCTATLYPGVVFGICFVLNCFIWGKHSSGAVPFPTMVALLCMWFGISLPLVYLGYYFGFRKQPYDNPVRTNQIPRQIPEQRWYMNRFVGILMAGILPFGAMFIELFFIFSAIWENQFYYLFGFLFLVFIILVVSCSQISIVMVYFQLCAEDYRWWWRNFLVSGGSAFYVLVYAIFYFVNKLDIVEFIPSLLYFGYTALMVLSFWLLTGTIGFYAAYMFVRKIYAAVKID
Target,probe-labelled cysteine peptide fold change (10 µM),probe-labelled cysteine peptide fold change (50 µM)
STRAP_Q9Y3F4_305_CVLPEEDSGELAKPK (UniProt Q9Y3F4),0.162,-0.46
TOP2B_Q02880_476_HSLECTLILTEGDSAK (UniProt Q02880),0.18,0.129
TANGO6_Q9C0B7_537_AVPSLHSLCQFR (UniProt Q9C0B7),-0.0489,0.382
TAB1_Q15750_235_QVGIICGQESTR (UniProt Q15750),0.111,0.171
TOMM40_O96008_74+76_TPGAATASASGAAEDGACGCLPNPGTFEECHRK (UniProt O96008),-0.254,-1.45
TM9SF1_O15321_107_ILCHMQLSSAQVEQLR (UniProt O15321),0.128,0.161
SRXN1_Q9BYN0_99_GAQGGDYFYSFGGCHR (UniProt Q9BYN0),1.08,0.175
THOC6_Q86W42_35_LHMTIFSQSVSPCGK (UniProt Q86W42),-0.286,-1.43
TOP2B_Q02880_1018+1029_LQTTLTCNSMVLFDHMGCLK (UniProt Q02880),0.0431,0.21
TBL1X_O60907_238_GHESEVFICAWNPVSDLLASGSGDSTAR<|>TBL1Y_Q9BZK7_185_GHESEVFICAWNPVSDLLASGSGDSTAR (UniProt Q9BZK7+O60907),0.343,0.127
TANGO6_Q9C0B7_15_QAVGSGAQETCGLDR (UniProt Q9C0B7),-0.228,-1.05
THEMIS2_Q5TEJ8_453_YSLADLTAQFSLPCEVK (UniProt Q5TEJ8),-0.04,-0.143
SNX7_Q9UNH6_325_KADTDLLPEEIGKLEDKVECANNALK (UniProt Q9UNH6),-0.516,-1.95
TM9SF4_Q92544_104_KCEVLCSQSNKPVTLTVEQSR (UniProt Q92544),0.0199,-0.291
SRPK1_Q96SB4_647_RATAAECLR (UniProt Q96SB4),0.323,1.08
TFB2M_Q9H5Q4_102_PSRPPHLLLECNPGPGILTQALLEAGAK (UniProt Q9H5Q4),-0.0999,-0.0748
TARS_P26639_343_DQELYFFHELSPGSCFFLPK (UniProt P26639),-0.0434,0.0997
TNIP1_Q15025_171_LETTLSVCAEEPDHGQLFTHLGR (UniProt Q15025),-0.191,-0.111
TEPSIN_Q96N21_302_ALCAIASLGSSDLLPQEHILLR (UniProt Q96N21),0.126,-0.793

Target,probe-labelled cysteine peptide fold change (10 µM),probe-labelled cysteine peptide fold change (50 µM)
SRP72_O76094_179_VVPENLGLQEGTHELCYNTACALIGQGQLNQAMK (UniProt O76094),0.394,0.0292
TBC1D1_Q86TI0_676_ACDSSSR (UniProt Q86TI0),-0.0589,1.07
STAG2_Q8N3U4_308_AICIEEIGIWMK (UniProt Q8N3U4),0.294,0.678
SUPT6H_Q7KZ85_1265_VGMTVHCR (UniProt Q7KZ85),-0.0261,-0.222
TACC3_Q9Y6A5_242_HGGVCAPAAVATSPPGAIPK (UniProt Q9Y6A5),-0.111,-0.0794
TKFC_Q3LXA3_13+24_LVNSVAGCADDALAGLVACNPNLQLLQGHR (UniProt Q3LXA3),0.2,0.273
TOR4A_Q9NXH8_374_DVVSCFRDEMAGEGFFPDQAR (UniProt Q9NXH8),0.0302,0.101
SRBD1_Q8N5C6_294_MSECLLK (UniProt Q8N5C6),-0.808,-1.34
SUCLA2_Q9P2R7_152+158_ICNQVLVCER (UniProt Q9P2R7),0.0845,-0.0221
TEC_P42680_74_NDDGVIPCQNK (UniProt P42680),-0.152,0.00627
SNX6_Q9UNH7_149_KTVAMHEVFLCR (UniProt Q9UNH7),-0.457,-1.64
TNS3_Q68CZ2_1241_HFLIECTPK (UniProt Q68CZ2),-0.174,-1.35
TES_Q9UGI8_196_SEALGVGDVKLPCEMDAQGPK (UniProt Q9UGI8),-0.45,-1.06
SON_P18583_1551_EMEHNTVCAAGTSPVGEIGEEK (UniProt P18583),-0.31,-0.236
THBS4_P35443_925_LGVFCFSQENIIWSNLK (UniProt P35443),-0.755,-0.5
TBRG4_Q969Z0_191_HLAFLAESCATLSQEQHSQELLAELLTHLER (UniProt Q969Z0),-0.0116,0.027
TCEAL5_Q5H9L2_149_ECGDVSR<|>TCEAL6_Q6IPX3_143_ECGDVSR (UniProt Q6IPX3+Q5H9L2),-0.0207,-0.39
TMPO_P42167_363_EMFPYEASTPTGISASCR (UniProt P42167),-0.0695,-0.103
